Here are results for 1 molecule from patent US11155596B2, “Polypeptide” (AFFIBODY AB, priority 2016, dated 2021).

The experiment has as its target PD-L1 on PD-L1 expressing cells (IFNg-stimulated THP-1 cells; MDA-MB-231 cells) (Homo sapiens (Human)), Q9NZQ7. Briefly: FACS, MDA-MB-231 cells, 0.625 µg/ml; negative control (buffer) 69. Particulars: remark: other sources report otherwise.

Sequence of PD-L1 on PD-L1 expressing cells (IFNg-stimulated THP-1 cells; MDA-MB-231 cells) (Homo sapiens (Human)), Q9NZQ7 (Q9NZQ7 19-290 limits assumed): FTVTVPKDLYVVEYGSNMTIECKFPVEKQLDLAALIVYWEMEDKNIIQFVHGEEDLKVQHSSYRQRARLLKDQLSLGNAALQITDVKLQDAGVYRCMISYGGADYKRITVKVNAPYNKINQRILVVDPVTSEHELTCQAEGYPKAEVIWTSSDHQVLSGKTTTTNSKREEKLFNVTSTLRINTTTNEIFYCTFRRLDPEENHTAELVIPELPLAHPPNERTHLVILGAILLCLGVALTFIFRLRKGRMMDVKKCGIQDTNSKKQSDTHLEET

B1: Lam (antibody)
heavy: QVQLVQSGVEVKKPGASVKVSCKASGYTFTNYYMYWVRQAPGQGLEWMGGINPSNGGTNFNEKFKNRVTLTTDSSTTTAYMELKSLQFDDTAVYYCARRDYRFDMGFDYWGQGTTVTVSSASTKGPSVFPLAPCSRSTSESTAALGCLVKDYFPEPVTVSWNSGALTSGVHTFPAVLQSSGLYSLSSVVTVPSSSLGTKTYTCNVDHKPSNTKVDKRV[here human IgG4 Fc with S228P (EU numbers) without letters]
light: EIVLTQSPATLSLSPGERATLSCRASKGVSTSGYSYLHWYQQKPGQAPRLLIYLASYLESGVPARFSGSGSGTDFTLTISSLEPEDFAVYYCQHSRDLPLTFGGGTKVEIKRTVAAPSVFIFPPSDEQLKSGTASVVCLLNNFYPREAKVQWKVDNALQSGNSQESVTEQDSKDSTYSLSSTLTLSKADYEKHKVYACEVTHQGLSSPVTKSFNRGEC
In turn, B1 returned an MFI of 62.
